From the supplement of paper PMC4967469
By IC50 is meant the dose at which the fit gives 50% viability; a limit (>, <) means that the fit lies beyond the doses tested. AUC, from the same fit, is the share of area under the viability curve across the 256-fold dose range; the more sensitive the line, the further below 1. For part of these data: An inferred top dose was derived from the fitted curves, not read from the paper. For part of these data: An entry number marks a drug with two screens in the source, which often give different values.

Assays:
Experiment in all cases: Viability of human cancer cell lines after 72 h of drug (GDSC screen)
RDEA119 = compound: COc1cc(F)c(F)c(Nc2ccc(I)cc2F)c1NS(=O)(=O)C1(C[C@H](O)CO)CC1 [RDEA119]; conditions: top dose 5 µM, top dose inferred
Protocol: (§1)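 Human cancer cell lines in 384-well plates, medium with 10% serum, drug for 72 h over a 256-fold dose range (nine 2-fold or five 4-fold steps up to the top dose). Adherent lines were fixed and stained with the nucleic acid dye Syto60, suspension lines read with resazurin; signal relative to control wells, capped at 0 and 100%. One two-parameter sigmoid per drug and line, fitted in a mixed model over all curves with the slope shared within a line.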

CUDC-101 = compound: C#Cc1cccc(Nc2ncnc3cc(OC)c(OCCCCCCC(=O)NO)cc23)c1 [CUDC-101]; conditions: top dose 5.12 µM; top dose inferred
Protocol: as §1

5-Fluorouracil = compound: O=c1[nH]cc(F)c(=O)[nH]1 [5-Fluorouracil]; conditions: top dose 32 µM; top dose inferred
Protocol: as §1

AC220 = compound: CC(C)(C)c1cc(NC(=O)Nc2ccc(-c3cn4c(n3)sc3cc(OCCN5CCOCC5)ccc34)cc2)no1 [AC220]; conditions: top dose 1.024 µM; top dose inferred
Protocol: as §1

JNK-9L = compound: Fc1cc(-c2ccnc(Nc3ccc(-n4cnc(N5CCOCC5)n4)cc3)n2)cc(N2CCOCC2)c1 [JNK-9L]; conditions: top dose 5.12 µM; top dose inferred
Protocol: as §1

QS11 = compound: OC[C@H](Cc1ccccc1)Nc1nc(Oc2ccc3c(c2)CCC3)nc2c1ncn2Cc1ccc(-c2ccccc2)cc1 [QS11]; conditions: top dose 10.24 µM
Protocol: as §1

OSU-03012 = compound: NCC(=O)Nc1ccc(-n2nc(C(F)(F)F)cc2-c2ccc3c(ccc4ccccc43)c2)cc1 [OSU-03012]; conditions: top dose 16 µM; top dose inferred
Protocol: as §1

| Cell Line | AUC (RDEA119; screen: GDSC drug entry 1014) | IC50 (RDEA119; screen: GDSC drug entry 1014) [nM] | AUC (RDEA119; screen: GDSC drug entry 1526) | IC50 (RDEA119; screen: GDSC drug entry 1526) [nM] | AUC (CUDC-101) | IC50 (CUDC-101) [nM] | AUC (5-Fluorouracil) | IC50 (5-Fluorouracil) [nM] | AUC (AC220) | IC50 (AC220) [nM] | AUC (JNK-9L) | IC50 (JNK-9L) [nM] | AUC (QS11) | IC50 (QS11) [nM] | AUC (OSU-03012) | IC50 (OSU-03012) [nM] |
| --- | --- | --- | --- | --- | --- | --- | --- | --- | --- | --- | --- | --- | --- | --- | --- | --- |
| OVK-18 (ovary, adherent) | 0.72 | 1420 | 0.825 | 3430 | 0.968 | > 5120 | 0.703 | 7980 | 0.983 | > 1020 |  |  |  |  |  |  |
| PEO1 (ovary, adherent) | 0.834 | 3450 | 0.805 | 2650 | 0.393 | 160 | 0.956 | > 32000 | 0.987 | > 1020 |  |  |  |  |  |  |
| QGP-1 (pancreas, adherent) | 0.809 | 4950 | 0.833 | > 5000 | 0.558 | 506 | 0.778 | 22500 | 0.964 | > 1020 |  |  |  |  |  |  |
| RCC-AB (kidney, adherent) | 0.809 | 3650 | 0.904 | > 5000 | 0.463 | 245 | 0.784 | 18200 | 0.958 | > 1020 |  |  |  |  |  |  |
| RCC-ER (kidney, adherent) | 0.93 | > 5000 | 0.872 | > 5000 | 0.933 | > 5120 | 0.963 | > 32000 | 0.986 | > 1020 |  |  |  |  |  |  |
| RCC-FG2 (kidney, adherent) | 0.902 | > 5000 | 0.841 | 4960 | 0.827 | 4380 | 0.945 | > 32000 | 0.978 | > 1020 |  |  |  |  |  |  |
| RCC-JF (kidney, adherent) | 0.561 | 470 | 0.721 | 1450 | 0.55 | 446 | 0.668 | 6270 | 0.978 | > 1020 |  |  |  |  |  |  |
| RCC-JW (kidney, adherent) | 0.852 | 4020 | 0.873 | > 5000 | 0.589 | 566 | 0.962 | > 32000 | 0.981 | > 1020 |  |  |  |  |  |  |
| RCC-MF (kidney, adherent) | 0.76 | 2270 | 0.817 | 3940 | 0.638 | 864 | 0.848 | > 32000 | 0.968 | > 1020 |  |  |  |  |  |  |
| SK-GT-4 (oesophagus, adherent) | 0.555 | 457 | 0.55 | 442 | 0.455 | 235 | 0.889 | > 32000 | 0.981 | > 1020 |  |  |  |  |  |  |
| SK-MEL-28 (melanoma, adherent) | 0.389 | 155 | 0.394 | 161 | 0.688 | 1060 |  |  | 0.982 | > 1020 | 0.976 | > 5120 | 0.984 | > 10200 | 0.922 | > 16000 |
| SK-OV-3 (ovary, adherent) | 0.933 | > 5000 | 0.909 | > 5000 | 0.542 | 429 |  |  | 0.973 | > 1020 | 0.753 | 2100 | 0.881 | > 10200 | 0.628 | 2480 |
| SN12C (kidney, adherent) |  |  | 0.809 | 3010 | 0.711 | 1370 |  |  | 0.986 | > 1020 | 0.663 | 967 | 0.912 | > 10200 | 0.854 | 15200 |
| SNU-175 (large intestine, suspension) |  |  |  |  | 0.427 | 205 | 0.785 | 12800 | 0.877 | 917 |  |  |  |  |  |  |
| SNU-C2B (large intestine, adherent) | 0.832 | 4730 | 0.88 | > 5000 | 0.499 | 318 |  |  | 0.979 | > 1020 | 0.613 | 725 | 0.941 | > 10200 | 0.701 | 4460 |
| SW1573 (lung adenocarcinoma, adherent) | 0.911 | > 5000 | 0.861 | > 5000 | 0.735 | 1920 |  |  | 0.98 | > 1020 | 0.573 | 542 | 0.975 | > 10200 | 0.771 | 8300 |
| T47D (breast, adherent) | 0.95 | > 5000 | 0.96 | > 5000 | 0.406 | 154 |  |  | 0.938 | > 1020 | 0.858 | > 5120 | 0.971 | > 10200 | 0.763 | 8970 |
| T-24 (bladder, adherent) |  |  | 0.801 | 2300 | 0.711 | 1220 |  |  | 0.983 | > 1020 | 0.745 | 1550 | 0.987 | > 10200 | 0.881 | 15500 |
| TK10 (kidney, adherent) | 0.756 | 2050 | 0.718 | 1500 | 0.973 | > 5120 |  |  | 0.982 | > 1020 | 0.678 | 1120 | 0.934 | > 10200 | 0.687 | 3750 |
| U251 (glioma, adherent) |  |  | 0.816 | 2610 | 0.303 | 92.5 |  |  | 0.986 | > 1020 | 0.658 | 861 | 0.969 | > 10200 | 0.871 | 13800 |
| UACC-257 (melanoma, adherent) | 0.36 | 116 | 0.435 | 199 | 0.517 | 361 |  |  | 0.972 | > 1020 | 0.687 | 1230 | 0.974 | > 10200 | 0.858 | > 16000 |
| UMC-11 (lung carcinoid, adherent) |  |  | 0.99 | > 5000 | 0.37 | 147 |  |  | 0.953 | > 1020 | 0.533 | 391 | 0.989 | > 10200 | 0.822 | 8070 |
| YMB-1-E (breast, adherent) |  |  |  |  | 0.811 | 4050 | 0.837 | > 32000 | 0.963 | > 1020 |  |  |  |  |  |  |
